In PubChem BioAssay AID624418 (National Center for Advancing Translational Sciences (NCATS), 2012):
Out of some 410,000 compounds screened, about 530 (0.13%) were called active. The inconclusive results got no clear call from the source; some entries with a clear call stand among them for comparison. Calls follow the shape of the dose curve; as a rule, active = well fitted inhibition curve with a large enough effect; inconclusive = small, poorly fitted or top-dose-only effect, or another doubt; inactive = no such curve, though single readings can be large or run the other way. Where the call is inconclusive, the potency comes from a doubtful curve fit.

Experiment: qHTS of GLP-1 Receptor Inverse Agonists: Cytotox Screen
Details: HEK293 cAMP-luciferase reporter cells, luminescence, 24 h; activity change, negative = inhibition: at 38.3 µM (top of the series) unless noted
How it was run: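 MLSMR compounds, 24 hr on cells at 37 deg C/5% CO2; luminescence after luciferase reagent (12 min RT). Inhibition counted as the undesired cytotoxic outcome.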
% is scaled to controls: 0 for no effect and ±100 for the full control effect; potency is read from the fitted curve at half-maximal effect.

Structure (SMILES) | Potency | activity change, negative = inhibition
CCOC(=O)/C=C/C(=O)Nc1ccc(S(=O)(=O)Nc2c(C)cc(C)cc2C)cc1 | inconclusive: 28.2 µM [inhibitor, single point] | 
CCOC(=O)C1CCCN(C2=C(NS(=O)(=O)c3ccc(Br)cc3)C(=O)c3ccccc3C2=O)C1 (configuration not stated) | inconclusive: 31.6 µM [inhibitor, partial curve, poor fit] | 
c1cncc(CSc2nnc3ccc(-c4ccncc4)nn23)c1 |  | inactive: 2.34%
Cc1occc1C(=O)NNC(=O)Nc1ccc(Cl)c(Cl)c1 |  | inactive: 8.64%
O=C(/C=C/c1ccccc1[N+](=O)[O-])c1ccccc1Br | inconclusive: 28.2 µM [inhibitor, single point] | 
COc1ccc(N=C2C(=S)N(c3ccc(OC)cc3)C(=NS(=O)(=O)c3ccccc3)N2c2ccccc2)cc1 |  | inactive: -12.5%
S=c1[nH]nc(-c2cccs2)n1C1CCCCC1 | inconclusive: 12.6 µM [inhibitor, single point] | 
CC(C)C(N)c1csc(Nc2nncc3ccccc23)n1 (configuration not stated) | inconclusive: 28.2 µM [inhibitor, single point] | 
C=CCOC(=O)C1=C(C)NC(SCC)=C(C#N)C1c1ccc(Cl)cc1 (configuration not stated) | inconclusive: 31.6 µM [inhibitor, single point] | 
Cc1[nH][nH]c(=O)c1C(c1c(C)[nH][nH]c1=O)c1cn(Cc2ccc(F)cc2)c2ccccc12 | inconclusive: 12.6 µM [inhibitor, single point] | 
O=C(CCCN1C(=O)/C(=C/c2cccs2)SC1=S)Nc1ccc(O)cc1 | inconclusive: 12.6 µM [inhibitor, single point] | 
CC1CCCN(C(=O)c2ccc(S(=O)(=O)N3CCC(c4nc5ccccc5s4)CC3)cc2)C1 (configuration not stated) | inconclusive: 0.891 µM [inhibitor, full curve, poor fit] | 
Cc1cc(N/N=C/c2ccc(F)cc2)nc(-n2nc(C)cc2C)n1 | inconclusive: 0.501 µM [inhibitor, full curve, poor fit] | 
Cc1cccc(NC(=S)N/N=C2\CC(C)(C)Oc3ccc(O)cc32)c1 | inconclusive: 2.51 µM [inhibitor, full curve] | 
COc1ccc(NC(=O)CN(C)C(=O)Cc2ccc3c(c2)CCC3)cc1 |  | inactive: -5%
CCOc1ccc(-n2cc(-c3ccccc3)c3c(N4CCOCC4)ncnc32)cc1 | inconclusive: 12.6 µM [inhibitor, single point] | 
CCn1c(SCC(=O)Nc2ccc3[nH]c(=O)[nH]c3c2)nc2ccccc21 | inconclusive: 28.2 µM [inhibitor, single point] | 
C=C(C(=O)c1ccccc1)C(c1ccccc1)C(C)C(=O)c1ccccc1 (configuration not stated) | inconclusive: 31.6 µM [inhibitor, partial curve, poor fit] | 
O=C(N/N=C/c1cn(-c2cccs2)nc1-c1ccccc1)c1ccccc1O | inconclusive: 17.8 µM [inhibitor, partial curve, poor fit] | 
CCCCCCCNC(=O)C1(CC2CC(c3cccc(Br)c3)=NO2)CCN(C(=O)C2(C)CC2)CC1 (configuration not stated) | inconclusive: 3.16 µM [inhibitor, full curve, poor fit] | 
Cc1ccc(SCc2nc(-c3cccnc3)no2)cc1 |  | inactive: 8.68%

Structure (SMILES) | Potency | activity change, negative = inhibition
Cc1ccc2cccc(CC(=O)NN)c2c1 | inconclusive: 28.2 µM [inhibitor, single point] | 
CCOC(=O)c1ccc(N2C(=O)C=CC2=O)cc1 | inconclusive: 28.2 µM [inhibitor, single point] | 
Cc1ccccc1CN1C2=NCCCN2c2ccccc21 | inconclusive: 12.6 µM [inhibitor, single point] | 
CCN(Cc1ccccc1)S(=O)(=O)c1ccc(C(=O)N(CCCN(C)C)c2nc3c(C)c(C)ccc3s2)cc1 | inconclusive: 28.2 µM [inhibitor, single point] | 
CCC1CCc2sc(C(=O)N(C)CC(=O)Nc3ccc(N4CCOCC4)cc3)cc2C1 (configuration not stated) | inconclusive: 28.2 µM [inhibitor, single point] | 
O=C(CC1N=C2c3ccccc3N=C(SCc3cccc(Cl)c3)N2C1=O)NCc1ccc2c(c1)OCO2 (configuration not stated) | inconclusive: 14.1 µM [inhibitor, single point] | 
CCCC(=O)Oc1c(S(=O)(=O)c2ccc(C)cc2)c(C)nn1C(C)(C)C | inconclusive: 12.6 µM [inhibitor, partial curve, poor fit] | 
O=c1c2ccccc2[nH]c(=S)n1CCCN1CCC(Cc2ccccc2)CC1 | inconclusive: 22.4 µM [inhibitor, single point] | 
Cc1ccc(C(=O)NC(=S)NCc2ccccc2)cc1Br | inconclusive: 28.2 µM [inhibitor, single point] | 
COc1ccc(-n2nc(C(=O)NCC(=O)NCCC3=CCCCC3)c3ccccc3c2=O)c(OC)c1 | inconclusive: 0.447 µM [inhibitor, full curve, poor fit] | 
CC(c1nc2ccccc2n1Cc1ccccc1)N1CCCCC1 (configuration not stated) | inconclusive: 14.1 µM [inhibitor, single point] | 
N=C1N(c2ccccc2)C(=S)C(=Nc2ccccc2)N1c1ccccc1 |  | inactive: -0.6%
CCOc1ccc(N(CC)S(=O)(=O)c2cc(Br)cc3c2N(C(C)=O)C(C)C3)cc1 (configuration not stated) |  | inactive: 8.83%
COc1ccc(S(=O)(=O)N2CCCN(CC(=O)Nc3ccc(NC(C)=O)cc3)CC2)cc1 | inconclusive: 0.447 µM [inhibitor, full curve, poor fit] | 
C#CCOCCOCCOCCNc1nc(N2CCN(C(=O)CCCCCCCCCCNC(=O)[C@H](CCCCN)n3cc(C)nn3)CC2)nc(N2CCN(C(=O)CCCCCCCCCCNC(=O)[C@H](CO)n3cc(CCCSC)nn3)CC2)n1 | inconclusive: 20 µM [inhibitor, single point] | 
CC(C)(C)NC(=S)Nc1cccc(C(F)(F)F)c1 | inconclusive: 12.6 µM [inhibitor, single point] | 
Cc1cccc(CN2CCC(CNC(=O)Nc3ccc(F)c(Cl)c3)CC2)c1 | inconclusive: 28.2 µM [inhibitor, single point] | 
CCOc1ccc(CNC(=O)C2Cc3ccccc3N2C(=O)CC)cc1OC (configuration not stated) |  | inactive: 3.62%
CC(C)(C)OC(=O)CNC(=O)c1[nH]cnc1C(=O)Nc1ccc(CNC(=O)OC(C)(C)C)cc1 | inconclusive: 20 µM [inhibitor, single point] | 
COc1ccc(-c2ccccc2)c2oc(-c3ccco3)cc(=O)c12 | inconclusive: 25.1 µM [inhibitor, single point] | 
Cc1cc(C(=O)C(C)Sc2cccc[n+]2[O-])c(C)n1-c1ccc(Cl)cc1 (configuration not stated) | inconclusive: 14.1 µM [inhibitor, partial curve, poor fit] | 

Structure (SMILES) | Potency | activity change, negative = inhibition
CC(=O)Nc1ccc(-c2csc(NC(=O)Nc3ccccc3)n2)cc1 | inconclusive: 7.08 µM [inhibitor, partial curve, poor fit] | 
COc1ccc(CNC(=O)C(c2ccc(O)cc2)N(Cc2ccco2)C(=O)c2snc(C(N)=O)c2N)cc1 (configuration not stated) | inconclusive: 1 µM [inhibitor, full curve] | 
CCc1ccc(CN2CCCC(C(=O)Nc3ccccc3-c3ccc(OC)cc3)C2)o1 (configuration not stated) | inconclusive: 2.51 µM [inhibitor, partial curve, poor fit] | 
CCc1ccccc1NC(=S)NCC1CCN(c2ccc(OC)cc2)C1 (configuration not stated) | inconclusive: 28.2 µM [inhibitor, single point] | 
O=[N+]([O-])c1ccc(N2CCOCC2)cc1NCc1ccccc1 | inconclusive: 28.2 µM [inhibitor, single point] | 
CCN(CC(=O)Nc1cccc(S(N)(=O)=O)c1)Cc1nc2ccccc2c(=O)[nH]1 | inconclusive: 28.2 µM [inhibitor, single point] | 
CCc1ccccc1NC(=O)CN1CCN(C(=O)CNC(=O)c2ccc(-c3ccccc3)cc2)CC1 |  | inactive: -23.9%
Cc1cc(C)c2c(=O)n(CC(=O)NCCCN3CCN(c4ccccc4F)CC3)sc2n1 | inconclusive: 11.2 µM [inhibitor, single point] | 
COc1ccc(COCC(O)CN2CCC(CN3C(=O)c4cccc5cccc(c45)C3=O)CC2)cc1OC (configuration not stated) | inconclusive: 12.6 µM [inhibitor, single point] | 
CCOc1ccc(NC(=O)c2ccccc2NC(=O)CNC2CCCC(C)C2C)cc1 (configuration not stated) |  | inactive: -1.8%
CC(NC(=S)NC(=O)c1ccccc1)c1ccccc1 (configuration not stated) | inconclusive: 20 µM [inhibitor, single point] | 
Cc1ccc(C2=NOC(=O)/C2=C\c2ccccc2)cc1 |  | inactive: -5.32%
CCc1ccc(CN2CCC(n3nccc3NC(=O)c3ccccc3C)CC2)cc1 | inconclusive: 14.1 µM [inhibitor, single point] | 
CSc1ccccc1NC(=O)c1ccccn1 | inconclusive: 10 µM [inhibitor, partial curve, poor fit] | 
CCc1ccc(C(CNc2nc(C(F)(F)F)nc3ccccc23)N(C)C)cc1 (configuration not stated) | inconclusive: 31.6 µM [inhibitor, partial curve, poor fit] | 
COc1ccccc1-c1nnc(SCC(=O)N2CCCC2)o1 | inconclusive: 2.51 µM [inhibitor, partial curve, poor fit] | 
CCc1ccccc1NC(=O)C(=O)NCCCN1CCOCC1 |  | inactive: -0.338%
O=C(NC(=S)N1CCCC1)c1ccccc1 | inconclusive: 17.8 µM [inhibitor, single point] | 
COc1cc2c(cc1OC)C(c1cccs1)N(C(=O)c1ccncc1)CC2 (configuration not stated) | inconclusive: 2.82 µM [inhibitor, partial curve, poor fit] | 
O=C(COC(=O)c1ccccc1Cc1ccccc1)Nc1ccc(SC(F)F)cc1 | inconclusive: 28.2 µM [inhibitor, single point] | 
